The campaign covered roughly 310,000 compounds. About 2,200 (0.71%) showed an effect of 50% or more. Effects have a minus sign here. The list shows a part of the results.
The molecules below were run against human ether-à-go-go-related gene (hERG) potassium channel (human, UniProt Q12809) (assay: primary screen, population patch clamp on CHO cells stably expressing hERG).
Chain of human ether-à-go-go-related gene (hERG) potassium channel (Q12809 whole entry, looked up): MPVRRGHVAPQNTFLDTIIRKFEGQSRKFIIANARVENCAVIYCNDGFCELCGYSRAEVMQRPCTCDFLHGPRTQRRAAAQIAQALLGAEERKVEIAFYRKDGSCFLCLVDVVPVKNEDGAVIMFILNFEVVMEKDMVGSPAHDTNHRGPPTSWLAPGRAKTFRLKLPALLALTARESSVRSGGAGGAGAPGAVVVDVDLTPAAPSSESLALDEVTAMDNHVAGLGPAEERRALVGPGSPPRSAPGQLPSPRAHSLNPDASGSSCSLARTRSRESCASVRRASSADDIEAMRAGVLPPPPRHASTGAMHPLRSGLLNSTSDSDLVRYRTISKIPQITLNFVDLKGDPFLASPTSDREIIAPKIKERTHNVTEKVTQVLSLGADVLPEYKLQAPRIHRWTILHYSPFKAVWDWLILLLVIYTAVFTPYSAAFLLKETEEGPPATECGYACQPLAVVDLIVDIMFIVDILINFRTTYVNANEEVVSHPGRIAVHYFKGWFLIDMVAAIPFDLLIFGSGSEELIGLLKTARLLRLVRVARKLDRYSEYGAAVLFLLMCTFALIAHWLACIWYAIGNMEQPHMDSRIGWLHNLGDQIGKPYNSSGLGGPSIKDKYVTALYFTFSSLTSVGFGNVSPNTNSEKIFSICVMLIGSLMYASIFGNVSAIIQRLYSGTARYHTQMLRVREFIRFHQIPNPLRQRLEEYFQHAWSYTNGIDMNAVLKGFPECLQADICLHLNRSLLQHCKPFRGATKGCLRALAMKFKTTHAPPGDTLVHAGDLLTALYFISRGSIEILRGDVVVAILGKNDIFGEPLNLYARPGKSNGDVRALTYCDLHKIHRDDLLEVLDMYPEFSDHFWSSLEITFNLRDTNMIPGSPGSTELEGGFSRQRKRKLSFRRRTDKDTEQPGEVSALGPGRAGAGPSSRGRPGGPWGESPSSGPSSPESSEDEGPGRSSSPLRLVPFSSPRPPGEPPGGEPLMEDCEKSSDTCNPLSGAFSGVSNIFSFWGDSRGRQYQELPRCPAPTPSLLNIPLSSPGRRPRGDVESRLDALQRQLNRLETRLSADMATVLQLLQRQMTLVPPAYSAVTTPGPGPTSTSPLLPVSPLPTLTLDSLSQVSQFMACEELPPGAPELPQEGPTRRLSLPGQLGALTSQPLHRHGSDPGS

Structure (SMILES) | hERG current change (%, negative = inhibition) at 1uM [%]
CC(C)c1ccc(-n2c(O)c(/C=N/N3CCOCC3)c(=O)[nH]c2=S)cc1 | 9.57
COc1cc(/C=C2/C(=N)N3OC(C)=CC3=NC2=O)ccc1OCCOc1ccc(C)cc1 | 16.1
Nc1ncc(-c2cc3ccccc3oc2=O)s1 | 9.89
COC(=O)Nc1ccc(S(=O)(=O)N2CCC(Cc3ccccc3)CC2)cc1 | 1.02
O=C(Nn1c(C2CCCCC2)nc2ccccc2c1=O)c1ccc(Cl)c([N+](=O)[O-])c1 | 7.58
Cc1ccc(CN2CC(C(=O)N(C)CC(=O)Nc3cccc(F)c3)CC2=O)cc1 (stereo not shown) | 2.13
COc1cc(/C=N/NC(=O)c2ccccn2)ccc1OC(=O)c1ccccc1Br | 12
COC(=O)C1=C[C@@H](C(=O)OC)[C@@H]2C3=C(C(=O)C2(C)C)[C@H](c2ccccc2)[C@@H]2C(=O)N(C)C(=O)[C@@H]2[C@@H]3C1 | 3.08
CCS(=O)(=O)N1CCN(S(=O)(=O)c2ccc(Cl)s2)CC1 | 6.15
CSc1cccc(N2C(=O)C3CCCN3C2=S)c1 (stereo not shown) | 14.4
COc1ccccc1/C=C/C(=O)OCC(=O)N1CCc2ccccc21 | 11.8
COc1cccc(NC(=O)c2ccco2)c1 | 6.98
COc1cccc(C2=CC(=O)C[C@H](c3ccc(Cl)cc3)C2)c1OC | 16.2
COc1ccc(O)c(C(=O)c2cnn(C(=O)c3cccc(S(=O)(=O)N4CCOCC4)c3)c2)c1 | 3
CCN(CC)C(=O)c1cncc(C(=O)N(CC)CC)c1-c1ccccc1 | 4.67
CSCc1ccc(C(=O)NC2CC(C)(C)Cc3c2cnn3-c2ccc(F)cc2)o1 (stereo not shown) | 9.02
O=C1C(=O)N(Cc2cccnc2)C(c2ccccn2)/C1=C(/O)c1ccc(F)cc1 (stereo not shown) | 4.9
CCn1c(=O)c2ccccc2n2c(SCC(=O)N3CCc4ccccc4C3)nnc12 | -3.75
Cc1csc(NC(=O)CSC2=NS(=O)(=O)c3cc(F)ccc3N2)n1 | 16.1
Cc1[nH]c2ccccc2c1/C=N/NC(N)=S | 11.4
Cc1ccc(OC2CCN(C(=O)C3CCC(=O)N(C4CC4)C3)CC2)cc1 (stereo not shown) | 2.65
NC(=O)C1(N2CCCCC2)CCN(CC(=O)Nc2ccc(Oc3ccccc3)cc2)CC1 | -35.5
CN(C)c1cccc(C(=O)Nc2cc(C(F)(F)F)ccc2-n2cnc3ccccc32)c1 | 2.72
Cc1ccccc1C(=O)NCCCNC(=O)c1cnccn1 | 19.3
CCc1c(C)sc(NC(=S)Nc2nc(C)cc(C)n2)c1C(=O)OC | 16.4
CCCCCCCCOC(=O)CCc1c(C)[nH]c(=S)[nH]c1=O | 8.34
CC(C)(C)OC(=O)N1Cc2cc3ccccc3nc2C1CO (stereo not shown) | 9.55
O=C(Nc1ccccc1Oc1ccsc1C(=O)O)c1ccccc1F | 13.3

Structure (SMILES) | hERG current change (%, negative = inhibition) at 1uM [%]
CN(C(=O)COC(=O)/C=C/c1ccc(C(F)(F)F)cc1)C1CCS(=O)(=O)C1 (stereo not shown) | 5.59
CC(C)CN(C(=O)CSc1nncs1)c1c(N)n(CC(C)C)c(=O)[nH]c1=O | 12.4
COc1ccc2[nH]c(=O)c(CN(C(C)=O)c3ccc(C)cc3C)cc2c1 | 11.8
O=C(O)CCCn1cc(NC(=O)COc2ccc(F)cc2F)cn1 | 23.6
O=[N+]([O-])c1ccc(N2CCCCC2)cc1NCCOc1ccccc1 | 7.4
C=CCSc1nnc(N2C(=O)C(O)=C(C(=O)c3ccco3)C2c2ccc(F)cc2)s1 (stereo not shown) | 9.13
N#Cc1nc(COc2ccc(-c3ccccc3)cc2)oc1NCCCN1CCOCC1 | 0.683
O=C(COC(=O)C1c2ccccc2Oc2ccccc21)NC1CCS(=O)(=O)C1 (stereo not shown) | 12.9
CCCCC(=O)Nc1ccc(C(=O)OC2CCCCC2)cc1 | 11.8
COc1ccc(OC)c(CC(=O)N2CCc3cc(OC)c(OC)cc3C2)c1 | 10.6
COC(=O)c1ccc([C@@H]2C[C@H]3CN(Cc4cccnc4)C(=O)[C@]34CCCN24)cc1 | 14.3
C/C(=N/N=C(\C)c1ccccc1O)c1ccccc1O | 29.3
CCOc1cc(-c2cc(-c3ccc(N)cc3)nc(N)c2C#N)ccc1O | 9.57
Cc1nc(SC(C)C(=O)NC2CCCC2)c2ccccc2n1 (stereo not shown) | 12.4
Cc1c(NC(=O)C2(c3ccccc3)CCOCC2)c(=O)n(-c2ccccc2)n1C | 3.79
Cc1c(C(=O)N(C)CCC#N)oc2ccc(S(=O)(=O)N3CCOCC3)cc12 | 18.9
CC(NC(=O)c1ccc(NS(C)(=O)=O)cc1)c1ccccc1 (stereo not shown) | -7.06
Cc1noc(C)c1S(=O)(=O)N1CCCC1C(=O)O (stereo not shown) | 15
COC(=O)c1ccccc1NC1=C/C(=N\S(=O)(=O)c2cccs2)c2ccccc2C1=O | -3.55
Cc1cc([N+](=O)[O-])nn1CC(=O)Nc1cc(F)ccc1F | -4.5
CCCOC(=O)NC1C(NC(=O)OCCC)N(C)C(=O)N1C (stereo not shown) | 11.4
CC(C)c1csc(CN2CCC(CO)(Cc3cccc(F)c3)CC2)n1 | -0.252
O=C(O)C1CCN(C(=O)CCN2C(=O)S/C(=C\c3ccccc3)C2=O)CC1 | 30.9
CCOC(=O)C1=C(C)NC(C)=C(C(=O)OCC)C1c1cn(-c2ccccc2)nc1-c1ccco1 | 1.55
CCCCC(CC)CNCC(O)c1ccccc1 (stereo not shown) | 9.48
CCN(CC(=O)Nc1c(F)cccc1F)C(=O)c1cc(S(=O)(=O)N2CCOCC2)ccc1N1CCCC1 | 6.27
O=C(NCCCn1ccnc1)C(=O)NCc1ccc(Cl)cc1 | -11.7

Source: paper PMC4336329 (PLoS ONE, 2015)
